In PubChem BioAssay AID504832 (National Center for Advancing Translational Sciences (NCATS), 2011):
Among all 310,000 compounds or so, about 18,000 (5.8%) were called active. Inconclusive means that the source gave no clear call. Such entries were picked first, then a sample of the others. The call rests on the fitted dose curve; in most records, active means well fitted inhibition curve with a large enough effect; inconclusive means small, poorly fitted or top-dose-only effect, or another doubt; inactive means no such curve, though single readings can be large or run the other way. No potency is given beside an inconclusive call; the fits are too rough.

Experiment: Primary qHTS for delayed death inhibitors of the malarial parasite plastid, 48 hour incubation
Conditions: P. falciparum luciferase growth in erythrocytes; series mostly up to 28.7 µM; activity change, negative = inhibition: at the top concentration
Summary of the method: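 A one-generation exposure of luciferase-tagged malaria parasites in RPMI 1640/Albumax erythrocyte culture, 37 C and 5% CO2. Inhibition is inferred from decreased luminescence after adding detection reagent.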
On the % scale 0 is the no-effect control and ±100 the full control effect; potency means the concentration at half of the fitted maximal effect; tags describe the fitted curve by direction and shape.

Row | SMILES | Potency | activity change, negative = inhibition
1 | CCN(CC)S(=O)(=O)c1ccc(/C=C/C(=O)Nc2ccc(N3CCOCC3)cc2)cc1 | active: 10.4 µM | 
2 | CCn1c(/C=N/c2nc3ccccc3n2C)nc2ccccc21 |  | inactive: 32.4%
3 | CC1(c2ccccc2)O[C@@H]2C[C@H]3[C@@H]4CCC5=CC(=O)C=C[C@]5(C)[C@@]4(F)[C@@H](O)C[C@]3(C)[C@]2(C(=O)CO)O1 (stereo partly drawn) | active: 0.828 µM | 
4 | O=c1c2c(nc3n1CCS3)c1cc(F)ccc1n2Cc1cc(=O)n2cc(Cl)ccc2n1 | inconclusive [inhibitor, partial curve] | 
5 | O=C(Cn1ccnc1)c1ccc(Cl)cc1 |  | inactive: -5.08%
6 | O=C(COc1ccccc1-c1ccccc1)NCc1cccc(Cl)c1 | inconclusive [inhibitor, single point] | 
7 | Cc1ccc(S(=O)(=O)N2CCOCC2)cc1C(=O)NC1CCCCC1 | inconclusive [inhibitor, single point] | 
8 | CC(=O)c1ccc(S(=O)(=O)N2CCN(c3nc(-c4cccnc4)nc4ccccc34)CC2)cc1 | active: 8.28 µM | 
9 | CS(=O)(=O)c1ccc2nc(NC(=O)c3ccc(NS(=O)(=O)c4cccc([N+](=O)[O-])c4)cc3)sc2c1 | inconclusive [inhibitor, single point] | 
10 | CN(CC(=O)Nc1cccc(F)c1)C(=O)c1ccc(NC2CC2)c([N+](=O)[O-])c1 | inconclusive [inhibitor, single point] | 
11 | CN(CC(=O)Nc1cccc(F)c1)C(=O)C1CCN(C(=O)c2ccc(Cl)cc2)CC1 |  | inactive: -8.49%
12 | Cc1cc(C)c(NC(=O)CCn2nnc3ccccc32)c(C)c1 |  | inactive: 2.54%
13 | COc1ccc(C2CC(=O)c3sc(NC(C)=O)nc3C2)cc1 (stereo not drawn) | inconclusive [inhibitor, single point] | 
14 | O=C(Nc1cccc2ccccc12)c1cccc(F)c1 |  | inactive: 41.6%
15 | CCOc1ccc(CC(=O)NNC(=O)NC2CCCCC2)cc1 |  | inactive: 3.72%
16 | Cn1c(=O)c2c(nc(NC3CCCCC3)n2Cc2ccccc2)n(C)c1=O | inconclusive [inhibitor, single point] | 
17 | C(=C/c1ccccc1)/CN1CCN(C(c2ccccc2)c2ccccc2)CC1 | inconclusive [inhibitor, single point] | 
18 | O=C(NCc1ccccc1)C(c1c(F)cccc1Cl)N(C(=O)c1csnn1)C1CC1 (stereo not drawn) | inconclusive [inhibitor, partial curve, poor fit] | 
19 | CC(=O)Nc1ccc(S(=O)(=O)N(Cc2ccccc2)c2ccccc2F)cc1 |  | inactive: -17.3%
20 | CN1CCN(CCNC(=O)Cn2c(=O)c3cccn3c3ccc(F)cc32)CC1 |  | inactive: 9.14%
21 | COc1cc(-c2nc(-c3ccc(C)nc3OC)no2)cc(OC)c1OC |  | inactive: 8.12%
22 | Cc1cccc(N2CCN(C(=O)CSc3nc4ccccc4nc3N3CC(C)OC(C)C3)CC2)c1C (stereo not drawn) | inconclusive [inhibitor, single point] | 

Row | SMILES | Potency | activity change, negative = inhibition
23 | c1cncc(-c2nc3cc4ccccc4cc3[nH]2)c1 |  | inactive: 205%
24 | CCC(=O)c1cc(F)c(N2CCN(C(=O)Cc3ccccc3)CC2)cc1C | inconclusive [inhibitor, partial curve, poor fit] | 
25 | COc1ccccc1C(=O)NC(=S)Nc1ccc(S(=O)(=O)N2CCN(C)CC2)cc1 |  | inactive: -0.397%
26 | COc1cc(C#Cc2c(-c3cncn3C)n(C)c3ccc(-c4ccc(OC)nc4)cc23)cc(OC)c1 | inconclusive [inhibitor, full curve] | 
27 | COc1cc(/C=C/C(=O)O)cc(S(=O)(=O)N(C)CCO)c1OC | inconclusive [inhibitor, partial curve, poor fit] | 
28 | CCOc1ccc(N=Nc2ccc(O)c3ncccc23)cc1 | active: 0.738 µM | 
29 | NC(=O)C1CCN(CC(O)COCc2ccccc2Cl)CC1 (stereo not drawn) | inconclusive [inhibitor, partial curve, poor fit] | 
30 | C/C(=N\NC(=O)c1nnn(-c2nonc2N)c1-c1cccs1)c1ccc(O)cc1 | active: 11.7 µM | 
31 | Cc1ccc2nc(C3CCCN3Cc3nc(CCC(C)C)no3)[nH]c2c1 (stereo not drawn) | inconclusive [inhibitor, partial curve] | 
32 | COc1ccccc1C1=Nn2c(nnc2C2CCCCC2)SC1 | inconclusive [inhibitor, single point] | 
33 | COC(=O)c1ccc(C)c(-n2c(=O)n(Cc3ccccc3)c(=O)c3[nH]cnc32)c1 | inconclusive [inhibitor, partial curve, poor fit] | 
34 | Cn1c2ccccc2c2ncn(CCC3=CCCCC3)c(=O)c21 | inconclusive [inhibitor, single point] | 
35 | Cc1cc(-c2nnc(SCC(=O)Nc3nccs3)o2)no1 | inconclusive [inhibitor, single point] | 
36 | COC(=O)C1=C(C(=O)OC)[C@@H]2N(C)c3ccccc3[C@@]23C[C@@H](C(=O)OC)N(C(=O)c2cc(C)oc2C)C3=N1 | inconclusive [inhibitor, single point] | 
37 | CCN(CC)S(=O)(=O)c1ccc(N2CCOCC2)c(NC(=O)COc2ccccc2C#N)c1 | active: 11.7 µM | 
38 | CCN(CCCNC(=O)CCCCn1c(=O)[nH]c2ccccc2c1=O)c1ccccc1 | inconclusive [inhibitor, partial curve, poor fit] | 
39 | CC(C)Nc1nc(SC(C)C(=O)Nc2ccccc2)nc(N(C)C)n1 (stereo not drawn) | inconclusive [inhibitor, single point] | 
40 | CCCCn1c(N)c(N(CCOC)C(=O)c2cc3c(s2)CCCCC3)c(=O)[nH]c1=O | inconclusive [inhibitor, single point] | 
41 | O=C(COc1ccc(C(=O)c2ccccc2)cc1)NC1CCCCCC1 | inconclusive [inhibitor, partial curve, poor fit] | 
42 | C/C(=N/O)c1no[n+]([O-])c1/C(C)=N\O |  | inactive: 3.67%
43 | CC1(C)C(C=C(Cl)Cl)C1C(=O)N(Cc1ccc(Cl)cc1)C1CCS(=O)(=O)C1 (stereo not drawn) | inconclusive [inhibitor, partial curve] | 
